About 4,300 (8.3%) of roughly 52,000 compounds were called active. No stated cut-off is given here; in the data, active means survival mostly below about 52% (no sharp cut-off); inactive means mostly above about 56%. The list shows a part of the results.

For the experiment, the system named is DeltatarO mutant. The experiment is described as follows: growth inhibition of S. aureus wild type versus tarO mutant, primary screen, teichoic acid synthesis inhibitors, RN4220, OD600 (AID 463173). The following applies: OD600, 18 h, active compounds read low, screened at 18.75 µg/mL (by protocol).
In the case of `Cc1cccc(N2CCN(C(=O)CCCCn3c(=O)[nH]c4ccsc4c3=O)CC2)c1C`, the survival was inactive: 51%.

Turning to `COc1cc(C2CC(=O)Nc3cc4c(cc32)OCCO4)cc(Br)c1OC` (stereo not given), the survival was inactive: 68%. For `Cc1cc(Nc2cccc(Cl)c2)nc2ccc(NC(=O)Cc3cccc(C(F)(F)F)c3)cc12` the value was inactive: 64%.

With `Cc1cccc(NC(=O)C(=O)NCC(c2ccc3c(c2)OCO3)N2CCN(C)CC2)c1C` (stereo not given), the survival is inactive: 74%. `CCC(C)(C)n1nnnc1C(c1cccnc1)N1CCCC(C)C1` (stereo not given): the survival was inactive: 91%. The figure for `COc1ccc(CNC(=O)c2cc3c(=O)oc4ccc(C)cc4c3s2)c(OC)c1` is inactive: 86%; for `COc1ccc(OC)c(NC(=O)c2cccn2-c2nnc(N3CCCCC3)s2)c1` it is inactive: 75%. In the case of `COc1cc(NC(=O)CSc2ncc(S(=O)(=O)c3ccc(Br)cc3)c(=O)[nH]2)cc(OC)c1`, the survival was inactive: 58%. For `Cc1c2cnn(CC(=O)NCCc3ccccc3)c(=O)c2c(C)n1Cc1ccccc1` the value was inactive: 77%; for `CCN(CC)S(=O)(=O)c1ccc2c(c1)c(=O)c(C(=O)N1CCN(c3ccc(F)cc3)CC1)cn2C`, inactive: 125%; for `CCc1ccc(NC(=O)CSC2=Nc3ccccc3C3=NC(CC(=O)NCc4ccccc4)C(=O)N23)cc1` (stereo not given), inactive: 74%. For `O=C(Cn1ncc2c3ccccc3n(Cc3cccc(Cl)c3)c2c1=O)NC1CCCCCC1` the value was inactive: 129%; for `O=C(Nc1ccccc1)c1cc2sccc2n1Cc1ccccc1`, inactive: 87%; for `CC(=O)N1CCc2cc(S(=O)(=O)CCC(=O)NCc3ccc(Cl)cc3)ccc21`, inactive: 71%.

Regarding `COC(=O)CCN(c1ccccc1)S(=O)(=O)c1cc(-c2cc(C)no2)ccc1OC`, the survival is inactive: 77%. The figure for `CCN1CCSc2ccc(C(=O)NCc3ccc(OC)cc3)cc21` is inactive: 66%; for `CC(C(=O)N1CCCCC1)N(c1ccccc1)S(C)(=O)=O` (stereo not given) it is inactive: 79%; for `O=C(NCCCc1ccccc1)C1CCN(C(=O)N2CCOc3ccc(Cl)cc32)CC1` it is active: 46%. For `CCCC(=O)N1CCCC(c2nc3c(nnn3Cc3ccccc3)c(=O)[nH]2)C1` (stereo not given) the value was inactive: 102%; for `Cn1ccc2c(OCC(=O)Nc3cc(C(F)(F)F)ccc3Cl)cccc2c1=O`, inactive: 101%. In the case of `CCOc1ccccc1NC(=O)CCn1nc(C)c(S(=O)(=O)N2CCCCC2)c1C`, the survival was inactive: 87%.

Consider `COc1cc(C)c(C)cc1S(=O)(=O)Nc1cccc(-c2ccc(N3CCOCC3)nn2)c1`, for which the survival was inactive: 77%. For `CCOCc1ccccc1Nc1ncnc2onc(-c3ccc(Cl)cc3)c12` the value was inactive: 125%; for `CCC(Sc1nncn2c1cc1oc(C)cc12)C(=O)Nc1ccc(F)cc1` (stereo not given), inactive: 54%. The figure for `CCc1cccc(NC(=O)C(c2ccccc2)N2Cc3ccccc3C2=O)c1` (stereo not given) is inactive: 87%. For `COCCn1c(=N)c(C(=O)NC(C)c2ccccc2)cc2c(=O)n3cc(C)ccc3nc21` (stereo not given) the value was inactive: 67%; for `COc1ccc(CCNC(=O)C(=O)NCC(c2ccco2)S(=O)(=O)c2ccc(F)cc2)cc1` (stereo not given), inactive: 89%; for `O=C1CCSC2(C(=O)N(Cc3ccc(F)cc3)c3ccccc32)N1c1ccc(F)c(F)c1` (stereo not given), inactive: 83%. As to `CCNC(=O)CC1C(=O)N(c2cccc(OC)c2)C(=O)N1Cc1ccc(OC)c(OC)c1` (stereo not given), the survival was inactive: 80%. For `CCOc1ccc2oc(=O)cc(CN3CCN(C(=O)c4ccc(F)cc4)CC3)c2c1` the value was active: 31%. For `COC(=O)c1sc(N)c(C#N)c1C`, the survival is inactive: 74%. For `COC(=O)CCc1csc(N)n1` the value was inactive: 96%; for `COc1cccc(NC(=O)Cn2c(=O)n(-c3ccc(C)cc3)c(=O)c3ccc(C(=O)NCc4ccco4)cc32)c1`, inactive: 80%; for `O=S(=O)(Nc1cccc(-c2ccc(N3CCCCCC3)nn2)c1)c1cccc(F)c1`, inactive: 84%.

On to `CCOc1ccccc1N(CC(=O)N1CCc2ccccc2C1)S(=O)(=O)c1ccccc1`, for which the survival is active: 37%. For `N#CCn1cc(C(=O)C(F)(F)F)c2ccccc21`, the survival was inactive: 111%. For `Cc1nc2ncnn2c(C)c1CCC(=O)NCc1ccccc1Cl` the value was inactive: 97%; for `O=C(Cn1cc(SCc2c(F)cccc2Cl)c2ccccc21)N1CCCCCC1`, inactive: 69%; for `O=C(O)C1C2C=CC(C2)C1C(=O)NCC1CCCO1` (stereo not given), inactive: 91%.

On to `COc1ccc(-n2nc(C(=O)N(C)c3cc(C)ccc3C)c3c4ccccc4n(C)c3c2=O)cc1Cl`, for which the survival was inactive: 110%.

In the case of `Cc1ccccc1OCC(=O)N1CCOCC1`, the survival was inactive: 102%.

Regarding `CCOc1ccc(NS(=O)(=O)c2ccc(-c3cc(C)no3)s2)cc1`, the survival is inactive: 87%. For `c1ccc(-n2ncc3c(N4CCOCC4)ncnc32)cc1` the value was inactive: 68%.

Regarding `CC(C)Oc1ccc(CNC(=O)CCCN2C(=O)c3cccnc3Oc3ccc(Cl)cc32)cc1`, the survival was inactive: 88%.

For the compound `CCC(=O)N1CCc2cc(Br)cc(S(=O)(=O)Nc3ccc(C)cc3C)c21`, the survival is inactive: 94%. The figure for `Cc1ccc(C(=O)ON2C(=O)c3ccccc3C2=O)cc1` is inactive: 75%; for `COc1ccc(CC(=O)N2CCc3cc(OC)c(OC)cc3C2COc2ccc(OC)cc2)cc1` (stereo not given) it is inactive: 135%; for `CCN(C(=O)c1cc2c(s1)-c1c(C)cccc1OC2)c1ccccc1F` it is inactive: 97%. For `CCc1cc(=O)oc2c3c(c(Cl)cc12)OCN(Cc1cccc(OC)c1)C3` the value was inactive: 71%. In the case of `Cc1cc2ccccc2n1CCNC(=O)c1cccc(Br)c1`, the survival is inactive: 56%. For `O=C(CSc1cn(CC(=O)N2CCOCC2)c2ccccc12)Nc1ccccc1F` the value was inactive: 88%.

Take `O=C(Nc1ccc2nn(-c3ccccc3)nc2c1)c1cc2ccccc2o1`: the survival is inactive: 63%. For `COc1ccc2oc(=O)cc(CN3CCN(Cc4ccccc4)CC3)c2c1` the value was inactive: 83%; for `c1ccc(CSc2n[nH]c(-c3ccncc3)n2)cc1`, inactive: 103%; for `Cc1c(Cl)cccc1NC(=O)c1cnc2sc(N3CCOCC3)nn2c1=O`, inactive: 123%. For `CCN(c1ccccc1)S(=O)(=O)c1ccc(NC(=O)c2cc(=O)c3cc(C)cc(C)c3o2)cc1` the value was inactive: 70%; for `CCC(=O)N1c2ccccc2CC1C(=O)NCCc1ccccc1C` (stereo not given), inactive: 71%. The figure for `COc1cccc(N2CCN(C(=O)c3ccc(Cn4c(=O)[nH]c5cc(OC)c(OC)cc5c4=O)cc3)CC2)c1` is inactive: 79%; for `CC(NS(=O)(=O)c1ccccc1)C(=O)NCc1ccc2c(c1)OCO2` (stereo not given) it is inactive: 78%; for `COc1ccc(C(CNC(=O)c2oc3ccc(Cl)cc3c2C)N2CCCCC2)cc1` (stereo not given) it is inactive: 106%. For `O=C(c1ccc2c(c1)N(Cc1ccc(Cl)cc1)C(=O)c1ccccc1S2=O)N1CCOCC1` (stereo not given), the survival is inactive: 72%. Take `Cc1cc(C)c2c(CC(=O)N3CCN(c4cccc(Cl)c4)CC3)coc2c1`: the survival is inactive: 61%. For the compound `CCOc1ccccc1N1CC(c2nc3ccccc3n2CCOc2ccccc2)CC1=O` (stereo not given), the survival is active: 32%. For `CCc1cccc(NC(=O)Cn2c(=O)ccc3cc(S(=O)(=O)N4CCC(C)CC4)ccc32)c1` the value was inactive: 131%. For `CCc1ccc(CNc2ncnc3c2nc2n3CCCC2)cc1` the value was inactive: 89%; for `O=C(CSc1nc2ccccc2n1Cc1ccccc1)N1CCN(c2ccc(F)cc2)CC1`, inactive: 56%; for `COc1ccc(-n2cc(C(=O)NCc3ccccc3)c3ccccc3c2=O)cc1`, inactive: 61%.

Consider `COc1ccc(CN2CCN(Cc3cc(=O)oc4cc(C)ccc34)CC2)c(OC)c1OC`, for which the survival is inactive: 101%. As to `CCCC(=O)N(c1ccc2oc3c(c2c1)CCCC3)S(=O)(=O)c1cc(C)ccc1C`, the survival is active: 35%. With `O=C1CC(c2nc3ccccc3[nH]2)CN1c1cccc(Cl)c1` (stereo not given), the survival was inactive: 81%.

With `COC(=O)c1ccc(CSc2nc3c([nH]c4ccccc43)c(=O)n2-c2ccc(Cl)cc2)o1`, the survival is inactive: 112%. For the compound `Nc1nnc2c(n1)[nH]c1ccccc12`, the survival is inactive: 81%. For the compound `COc1cccc(CSc2nc3cc(C(=O)NC4CCCC4)ccc3c(=O)n2Cc2ccccc2)c1`, the survival is inactive: 75%. For `Cc1ccc(OCC(=O)OCc2cc(=O)n3nc(-c4cccs4)sc3n2)cc1C` the value was inactive: 102%; for `Cc1ccc(-c2nc3n(n2)C(=O)CC(c2ccc(Cl)cc2)S3)cc1` (stereo not given), inactive: 88%; for `Cc1cc(C)c(NC(=O)Cn2c(=O)n(-c3ccc(CC(=O)NCC4CCCO4)cc3)c(=O)c3ccccc32)c(C)c1` (stereo not given), inactive: 120%.

As to `O=C(NCc1ccc(F)cc1)c1cc2n(n1)CCCN(Cc1ccc(F)cc1)C2=O`, the survival is inactive: 64%. The figure for `Cc1ccc(C(=O)Nc2sc3c(c2C(=O)NCc2ccco2)CCC(C(C)(C)C)C3)cc1` (stereo not given) is inactive: 64%; for `Cc1ccsc1CN(C(=O)COc1ccc(Br)cc1)C1CCS(=O)(=O)C1` (stereo not given) it is inactive: 73%; for `Cc1ccc(OCC(=O)Nc2cc3nn(-c4ccccc4)nc3cc2C)cc1` it is inactive: 76%.

As for `CCOc1ccc(Sc2cc(C(=O)NC(C)c3ccccc3)c3ccccc3n2)cc1` (stereo not given), the survival is inactive: 75%. Consider `Cc1ccc(C(=O)Nc2ccc(NC(=O)c3cccs3)cc2)cc1C`, for which the survival was inactive: 66%. For `COc1ccc(CCCc2nnc(SCC(=O)Nc3ccc(C)cc3)o2)cc1` the value was inactive: 71%; for `CCOc1ccc(-c2ccc(NS(=O)(=O)c3ccc(C)cc3)cc2)nn1`, inactive: 91%; for `O=C(CCc1nc(-c2cccs2)no1)Nc1cccc([N+](=O)[O-])c1`, inactive: 72%. The figure for `Cc1ccc(C)c(N2CCN(C(c3ccccc3)c3nnc(-c4ccccc4F)o3)CC2)c1` (stereo not given) is inactive: 61%. The figure for `COc1ccc(C(=O)c2ccc(OC)cc2OC)c(OC)c1` is inactive: 83%; for `COc1ccc(CN(CCN2CCOCC2)C(=O)c2cc3sccc3n2Cc2ccccc2)cc1` it is inactive: 98%. For `Fc1ccc(-c2noc3ncnc(NCCc4ccccc4)c23)cc1`, the survival is inactive: 76%. For `CCOc1ccc(-c2nonc2NC(=O)COc2c(C)cc(C)cc2C)cc1OCC` the value was inactive: 101%.
